Reference: the antibiotic and cytotoxicity screens of Wong et al. (2023)
The list shows a part of the results.

What follows are compounds tested on S. aureus RN4220 (assay: growth inhibition call (relative growth <= 0.2)). Details: 50 µM.

Growth inhibition call, inactive:
C[C@@H]1CCCCO[C@H](CN(C)C(=O)C2CCCCC2)[C@@H](C)CN([C@H](C)CO)C(=O)c2cc(NC(=O)Nc3ccc4c(c3)OCO4)ccc2O1
C[C@H](CO)N1C[C@H](C)[C@@H](CN(C)Cc2ccc(C(=O)Nc3ccccc3N)cc2)Oc2ccc(NC(=O)Nc3ccccc3)cc2CC1=O
CC(C)C#Cc1cnc2c(c1)C(=O)N([C@H](C)CO)C[C@H](C)[C@H](CN(C)C(=O)c1ccc3c(c1)OCO3)O2
CCN(CC)S(=O)(=O)[C@H]1CCS(=O)(=O)C1
CCCNC(=O)COc1cccc([C@@H](CCc2ccc(OC)c(OC)c2)OC(=O)[C@@H]2CCCCN2C(=O)C(=O)C(C)(C)CC)c1
CC(C)NC(=O)Nc1cccc2c1O[C@@H](CN(C)Cc1ccc(-c3ccccc3)cc1)[C@@H](C)CN([C@@H](C)CO)C2=O
C[C@H]1CCCCO[C@@H](CN(C)C(=O)C2CCCCC2)[C@@H](C)CN([C@@H](C)CO)C(=O)c2cc(NC(=O)c3ccncc3)ccc2O1
NNC(=O)c1ccccn1
C[C@@H]1CN([C@H](C)CO)C(=O)c2cc(NC(=O)CCC(F)(F)F)ccc2O[C@@H]1CN(C)Cc1ccc(C(=O)Nc2ccccc2N)cc1
C[C@@H]1CN([C@H](C)CO)C(=O)Cc2cc(NS(=O)(=O)c3ccccc3)ccc2O[C@H]1CN(C)Cc1ccc(C(=O)O)cc1
O=C(C[C@@H]1CC[C@@H]2[C@H](COC[C@@H](O)CN2C(=O)Nc2cccc(F)c2)O1)NCc1ccccc1Cl
COc1ccc(CN(C)C[C@H]2Oc3ccc(NS(=O)(=O)c4c(C)noc4C)cc3CC(=O)N([C@@H](C)CO)C[C@H]2C)cc1
C[C@@H]1CCCCO[C@@H](CN(C)S(=O)(=O)c2ccccc2)[C@@H](C)CN([C@H](C)CO)C(=O)c2cc(NC(=O)Nc3ccc(C(F)(F)F)cc3)ccc2O1
C[C@@H]1CN([C@@H](C)CO)C(=O)c2cc(NC(=O)Cc3ccccc3)ccc2O[C@@H](C)CCCCO[C@@H]1CN(C)C(=O)C1CCCCC1
C[C@@H]1CN([C@@H](C)CO)C(=O)c2cc(NC(=O)NC3CCCCC3)ccc2O[C@@H](C)CCCCO[C@@H]1CN(C)C(=O)c1ccccc1
CC(C)NC(=O)N[C@@H]1C=C[C@@H](CC(=O)O)O[C@H]1CO
C[C@@H]1CN([C@@H](C)CO)C(=O)c2cc(/C=C/c3ccccc3)cnc2O[C@@H]1CN(C)C(=O)CN1CCOCC1
C[C@H](CO)N1C[C@H](C)[C@H](CN(C)C(=O)c2ccncc2)OCCCC[C@H](C)Oc2ccc(NC(=O)C3CCCCC3)cc2C1=O
O=C(C[C@H]1CC[C@H]2NC[C@H](O)COC[C@@H]2O1)NCCN1CCCCC1
C[C@@H]1CCCCO[C@@H](CN(C)Cc2ccc(Cl)c(Cl)c2)[C@H](C)CN([C@@H](C)CO)C(=O)c2cc(NC(=O)Nc3ccc(C(F)(F)F)cc3)ccc2O1
O=C(CCCCCNC(=O)OCCCCO[C@@H]1C[C@H](c2ccc(Br)cc2)C=C(C(=O)N2CCN(Cc3ccccc3)CC2)O1)NO
Cc1cc(=O)n(CCO)c(=O)[nH]1
COc1ccc(CNC(=O)N(C)C[C@@H]2OCc3ccccc3-c3c(n(C)c4ccccc34)C(=O)N([C@H](C)CO)C[C@@H]2C)cc1
O=C(C[C@H]1CC[C@H]2[C@@H](COC[C@H](O)CN2C(=O)c2ccccn2)O1)NC1CCC1
O=C(Nc1cccc(C(F)(F)F)c1)c1ccc2ccccc2c1
CO[C@H]1CN(C)C(=O)c2cc(NS(=O)(=O)CC(F)(F)F)ccc2OC[C@H](C)N(Cc2nccs2)C[C@H]1C
COc1cccc(NC(=O)N(C)C[C@H]2Oc3cc(C#Cc4ccncc4)ccc3S(=O)(=O)N([C@H](C)CO)C[C@H]2C)c1
C[C@H]1CN([C@@H](C)CO)C(=O)Cc2cc(NC(=O)Nc3cccc4ccccc34)ccc2O[C@H]1CN(C)C(=O)Nc1cccc2ccccc12
CC(=O)O[C@H]1C[C@@H]2CC[C@@H]3[C@H](CC[C@@]4(C)[C@H]3C[C@H]([N+]3(C)CCCCC3)[C@@H]4OC(C)=O)[C@@]2(C)C[C@@H]1N1CCCCC1
C[C@@H]1CCCCO[C@@H](CN(C)CC2CCCCC2)[C@H](C)CN([C@H](C)CO)C(=O)c2cc(NC(=O)C3CCCCC3)ccc2O1
C[C@H](CO)N1C[C@H](C)[C@@H](CN(C)C(=O)Nc2ccc3c(c2)OCO3)OCCCC[C@H](C)Oc2ccc(NC(=O)c3ccncc3)cc2C1=O
C[C@@H]1CCCCO[C@@H](CN(C)C(=O)Nc2ccccc2)[C@H](C)CN([C@@H](C)CO)C(=O)c2cc(NC(=O)Cc3ccccc3)ccc2O1
C[C@@H]1CN([C@H](C)CO)C(=O)c2cc(/C=C/c3ccccc3)cnc2O[C@H]1CN(C)C(=O)c1cnccn1
C[C@@H]1CCCCO[C@H](CN(C)S(=O)(=O)c2cn(C)cn2)[C@H](C)CN([C@@H](C)CO)C(=O)c2cc(NS(C)(=O)=O)ccc2O1
C[C@@H]1CN([C@@H](C)CO)C(=O)c2cccc(NC(=O)NC3CCCCC3)c2O[C@@H]1CN(C)Cc1ccc(C(F)(F)F)cc1
C[C@H]1CCCCO[C@H](CN(C)C)[C@@H](C)CN([C@@H](C)CO)C(=O)c2cc(NC(=O)Nc3cccc4ccccc34)ccc2O1
O=C(C[C@H]1C[C@@H]2c3cc(NS(=O)(=O)c4ccc(F)cc4)ccc3O[C@@H]2[C@@H](CO)O1)NCc1cccc(F)c1
O=C(C[C@H]1CC[C@H]2[C@@H](COC[C@@H](O)CN2S(=O)(=O)c2ccccc2)O1)NCc1ccncn1
CC(C)NC(=O)Nc1ccc2c(c1)CC(=O)N([C@@H](C)CO)C[C@H](C)[C@H](CN(C)Cc1ccc(C(=O)O)cc1)O2
C[C@H](CO)N1C[C@H](C)[C@@H](CN(C)C(=O)Nc2cccc(F)c2)OCc2ccccc2-c2c(n(C)c3ccccc23)C1=O
